{"source": "PubChem BioAssay AID1461", "about": "(National Center for Advancing Translational Sciences (NCATS), 2008)", "note": "Among all 220,000 compounds or so, about 2,300 (1%) were called active. Inconclusive means that the source gave no clear call. Such entries were picked first, then a sample of the others. Calls follow the shape of the dose curve; as a rule, active = well fitted inhibition curve with a large enough effect; inconclusive = small, poorly fitted or top-dose-only effect, or effect the other way; inactive = no such curve, though single readings can be large or run the other way. No potency is given beside an inconclusive call; the fits are too rough. Potency is read from the fitted curve at half-maximal effect; tags tell the direction and shape of the fitted curve."}
{"molecular_target": "Neuropeptide S receptor (Homo sapiens) (UniProt Q6W5P4)", "sequence (Q6W5P4 whole entry, looked up)": "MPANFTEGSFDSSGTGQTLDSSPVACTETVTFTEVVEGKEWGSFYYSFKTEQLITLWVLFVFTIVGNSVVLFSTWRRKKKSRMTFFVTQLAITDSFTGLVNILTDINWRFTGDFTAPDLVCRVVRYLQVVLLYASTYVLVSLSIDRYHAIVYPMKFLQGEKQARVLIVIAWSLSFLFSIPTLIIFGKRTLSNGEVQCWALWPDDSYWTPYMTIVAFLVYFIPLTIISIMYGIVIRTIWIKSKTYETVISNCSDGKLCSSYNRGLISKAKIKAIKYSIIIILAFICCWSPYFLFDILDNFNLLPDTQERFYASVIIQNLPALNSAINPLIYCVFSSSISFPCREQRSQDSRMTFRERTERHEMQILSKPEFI", "experiment": "qHTS Assay for Antagonists of the Neuropeptide S Receptor: cAMP Signal Transduction; also: nearly all actives have a fitted effect of over 50% in size", "conditions": "CHO-NPSR cells, cAMP TR-FRET, antagonist mode; series mostly up to 38.3 µM"}
{"molecule": "CC1(C)Cc2c(sc3[nH]c(=S)[nH]c(=O)c23)CO1", "Potency": "inactive"}
{"molecule": "Oc1ccc2ccccc2c1N=Nc1nccs1", "Potency": "inconclusive [activator, single point]"}
{"molecule": "O=C(CN1C(=O)c2ccccc2C1=O)NN1C(=O)c2ccccc2C1=O", "Potency": "inconclusive [inhibitor, partial curve]"}
{"molecule": "O=C(Cc1ccc(-n2c(=O)[nH]c3ccccc3c2=O)cc1)N1CCN(c2cccc(Cl)c2)CC1", "Potency": "inconclusive [inhibitor, single point]"}
{"molecule": "COC(=O)c1nn(-c2ccccc2)c(-c2ccccc2)c1C(=O)c1ccccc1", "Potency": "inconclusive [inhibitor, partial curve]"}
{"molecule": "Cc1ccc(Nc2c([N+](=O)[O-])c(=O)oc3ccccc23)cc1", "Potency": "inactive"}
{"molecule": "C#CCn1cc(/C=N/Nc2nc3ccccc3[nH]2)c2ccccc21", "Potency": "active: 12.6 µM"}
{"molecule": "Cc1noc(C)c1C(=O)OCC(=O)Nc1cc(Cl)ccc1Oc1ccccc1", "Potency": "inconclusive [inhibitor, single point]"}
{"molecule": "CN1/C(=C\\C=C2/SC(=S)NC2=O)C(C)(C)c2ccccc21", "Potency": "inconclusive [activator, partial curve]"}
{"molecule": "CCN(CC)C(=O)c1sc2nc(-c3cccs3)cc(-c3cccs3)c2c1N", "Potency": "inconclusive [activator, partial curve]"}
{"molecule": "CN(C)/N=C/C=C1\\CCC/C(=C\\c2ccc(F)c(F)c2)C1=O", "Potency": "inactive"}
{"molecule": "CCOC(=O)COc1ccc(S(=O)(=O)N2CCN(c3ccccc3)CC2)cc1", "Potency": "inactive"}
{"molecule": "CCCC(=O)C1=C(O)C(C(=O)OC)C(C)(C)CC1=NC", "note": "(configuration not stated)", "Potency": "inactive"}
{"molecule": "O=C(CN(Cc1ccccc1)C1=NCCS1)c1ccccc1", "Potency": "inactive"}
{"molecule": "CCc1ccc(OCC(=O)N2c3ccccc3CCc3ccccc32)cc1", "Potency": "inconclusive [inhibitor, partial curve]"}
{"molecule": "O=[N+]([O-])c1ccccc1OCCCNCc1ccccc1", "Potency": "inactive"}
{"molecule": "O=C(CCCOc1ccccc1)NC(=S)Nc1ccccc1", "Potency": "inactive"}
{"molecule": "CC1CCCCN1C(=S)NCCc1ccccc1", "note": "(configuration not stated)", "Potency": "inconclusive [inhibitor, single point]"}
{"molecule": "O=C(c1ccccc1)n1ccc(-c2cnc(-c3ccccc3)s2)n1", "Potency": "inactive"}
{"molecule": "CC1=CC(C)(C)Nc2ccc(OC(=O)CCN3C(=O)c4ccccc4C3=O)cc21", "Potency": "inconclusive [inhibitor, single point]"}
{"molecule": "Cc1ccc2c(c1)C1CN(C)CCC1N2C(=S)NC(=O)c1ccc(Br)cc1", "note": "(configuration not stated)", "Potency": "inactive"}
{"molecule": "Cc1cccc(CSc2nc3c(c(=O)[nH]2)CCCC3)c1", "Potency": "inactive"}
{"molecule": "COc1ccccc1CCNC(=O)CCSc1nc(-c2ccco2)cc(C(F)(F)F)n1", "Potency": "inconclusive [inhibitor, partial curve]"}
{"molecule": "CC(C)Cn1cnc2c1c(=O)n(CC(O)c1ccccc1)c(=O)n2CC(C)C", "note": "(configuration not stated)", "Potency": "inconclusive [inhibitor, full curve, poor fit]"}
{"molecule": "CN(C)c1ccc(/C=N/NS(=O)(=O)c2ccc(Br)cc2)cc1", "Potency": "inconclusive [inhibitor, single point]"}
{"molecule": "O=C(CSc1nnc(CN2CCOCC2)n1-c1ccccc1)N1CCc2ccccc21", "Potency": "inactive"}
{"molecule": "O=C(Nc1ccc(F)cc1)c1sccc1SCc1cccc(C(F)(F)F)c1", "Potency": "inconclusive [inhibitor, single point]"}
{"molecule": "COCCn1c(C)cc(C(=O)CSc2nnc(-c3cccnc3)n2-c2ccccc2F)c1C", "Potency": "inactive"}
{"molecule": "O=C(Nc1cnn(Cc2ccc(Cl)c(Cl)c2)c1)C12CC3CC(CC(C3)C1)C2", "Potency": "inconclusive [inhibitor, single point]"}
{"molecule": "CCOC(=O)C1CCN(C(=O)COc2ccc(S(=O)(=O)N3CCCC3)cc2C)CC1", "Potency": "inactive"}
{"molecule": "O=C(c1cc(Br)c(Br)s1)N1CCN(C/C=C/c2ccccc2)CC1", "Potency": "inactive"}
{"molecule": "COC(=O)Cn1c(O)c(N=NC(=O)c2ccc3c(c2)OCO3)c2ccccc21", "Potency": "inactive"}
{"molecule": "CC(C)(C)c1ccc(C(=O)N/C(N)=N/c2nc3ccccc3o2)cc1", "Potency": "inactive"}
{"molecule": "COc1ccc(/C=N/NC(=S)SC)cc1OC", "Potency": "inconclusive [inhibitor, full curve, poor fit]"}
{"molecule": "Cc1cc2c3c(c1)C1(C(=O)N3C(C)(C)CC2C)C(C#N)=C(N)Oc2cc(O)ccc21", "note": "(configuration not stated)", "Potency": "inconclusive [inhibitor, single point]"}
{"molecule": "CC(C)(C)NS(=O)(=O)c1ccc(CCC(=O)N2CCOCC2)cc1", "Potency": "inconclusive [activator, single point]"}
{"molecule": "COCCN(CCOC)C(=O)c1cc2c(=O)n3ccccc3nc2s1", "Potency": "inconclusive [activator, partial curve]"}
{"molecule": "CCc1nnc(NC(=O)CSc2nnc(-c3cc4ccccc4cc3O)n2CCOC)s1", "Potency": "inconclusive [activator, partial curve]"}
{"molecule": "COc1ccc(OC)c(C(=O)CSc2nnc(Cc3cccs3)n2CCc2ccccc2)c1", "Potency": "inconclusive [inhibitor, partial curve]"}
{"molecule": "CCS(=O)(=O)N1CCN(C(=O)c2ccco2)CC1", "Potency": "inconclusive [inhibitor, single point]"}
{"molecule": "CCN(CC)C(=O)c1sc(NC(=O)c2ccc(C)c([N+](=O)[O-])c2)c(C#N)c1C", "Potency": "inactive"}
{"molecule": "C=CCN1C(=O)N/C(=C/c2ccc(N3CCOCC3)o2)C1=O", "Potency": "inactive"}
{"molecule": "O=C(NCCN1CCN(C(=O)Nc2ccccc2)CC1)Nc1ccccc1", "Potency": "inconclusive [inhibitor, single point]"}
{"molecule": "CC(C)(C)SCCNS(=O)(=O)c1ccccc1", "Potency": "inconclusive [inhibitor, single point]"}
{"molecule": "CCc1cc2cc3c(cc2nc1SCC(=O)Nc1nccs1)OCO3", "Potency": "active: 10 µM"}
{"molecule": "O=C(CSc1nc(-c2ccco2)cc(C(F)(F)F)n1)N1CCc2ccccc2C1", "Potency": "inconclusive [inhibitor, partial curve]"}
{"molecule": "CC1(C)CC(=O)C(C2C3=C(CC(C)(C)CC3=O)Oc3ccccc32)=C(O)C1", "note": "(configuration not stated)", "Potency": "inactive"}
{"molecule": "O=C(CSc1n[nH]c(=O)n1C1CC1)Nc1cc(Cl)ccc1Oc1ccccc1", "Potency": "inconclusive [inhibitor, single point]"}
{"molecule": "Cc1cccc(/C=N/Nc2ccc3ccccc3n2)c1", "Potency": "inconclusive [inhibitor, single point]"}
{"molecule": "CN(C(=O)CC(NC(=O)c1ccccc1)(c1ccccc1)c1ccccc1)c1ccccc1", "Potency": "inconclusive [inhibitor, single point]"}
{"molecule": "COc1ccc(NC(=O)CC2C(=O)N(c3ccc(Cl)cc3)C(=S)N2CCc2ccccn2)cc1", "note": "(configuration not stated)", "Potency": "inconclusive [inhibitor, single point]"}
{"molecule": "Cc1cccn2cc(-c3ccc(F)cc3)nc12", "Potency": "inconclusive [activator, partial curve]"}
{"molecule": "COC(=O)Nc1ccc(S(=O)(=O)N2CCCCC2)cc1", "Potency": "inactive"}
{"molecule": "CN(C)c1ccc(/C=C/c2ccc3ccccc3[n+]2C)cc1", "Potency": "active: 3.16 µM"}
{"molecule": "N#Cc1c(SCc2cccc(Cl)c2)sc(C(=O)c2ccccc2)c1N", "Potency": "inconclusive [inhibitor, single point]"}
{"molecule": "COc1ccc(/C=C/C(=O)c2ccc(NC(=O)c3cccs3)cc2)cc1OC", "Potency": "inconclusive [inhibitor, single point]"}
{"molecule": "Cc1c(C(=O)N2CCCCC2C)sc2ncnc(N3CCc4ccccc4C3)c12", "note": "(configuration not stated)", "Potency": "inconclusive [inhibitor, single point]"}
{"molecule": "CC(/C=N/N1CCN(c2ccccc2)CC1)=C\\c1ccccc1", "Potency": "inactive"}
{"molecule": "COc1cccc(-n2nc(C#N)c(Cl)cc2=O)c1", "Potency": "inactive"}
{"molecule": "COc1cc(/C=C(/C(=O)c2cccs2)c2nc3ccccc3[nH]2)cc(OC)c1O", "Potency": "active: 12.6 µM"}
{"molecule": "Cc1cc(C)n(C(=O)c2ccc(C)c(S(=O)(=O)N3CCOCC3)c2)n1", "Potency": "inconclusive [activator, single point]"}
{"molecule": "CCOC(=O)c1c(C)oc2c1c(C=NCc1ccccn1)c(O)c1ccccc12", "Potency": "inconclusive [inhibitor, single point]"}
{"molecule": "O=C(Nc1ccc(Br)c2ccccc12)c1ccc2ccccc2c1O", "Potency": "inconclusive [activator, partial curve]"}
{"molecule": "CCOC(=O)Cn1nnnc1C(CC)N(Cc1cccs1)Cc1cc2cc(C)ccc2[nH]c1=O", "note": "(configuration not stated)", "Potency": "inconclusive [inhibitor, single point]"}
{"molecule": "Cc1ccc(C)c(N(CC(=O)N/N=C/c2ccc(-c3ccc([N+](=O)[O-])cc3)o2)S(=O)(=O)c2ccccc2)c1", "Potency": "inconclusive [inhibitor, full curve, poor fit]"}
{"molecule": "O=C(CSc1ccc(-c2ccccn2)nn1)Nc1nccs1", "Potency": "inconclusive [inhibitor, single point]"}
{"molecule": "Cc1ccccc1NS(=O)(=O)c1cc(C(=O)Nc2ccccc2-c2ccccc2)ccc1Cl", "Potency": "inconclusive [inhibitor, single point]"}
{"molecule": "O=C(CCSc1nc(-c2ccco2)cc(C(F)(F)F)n1)N1CCCc2ccccc21", "Potency": "inconclusive [inhibitor, single point]"}
{"molecule": "CCCCn1c(SCC(=O)N2CC(C)CC(C)C2)nc2cc(S(N)(=O)=O)ccc21", "note": "(configuration not stated)", "Potency": "inconclusive [inhibitor, partial curve, poor fit]"}
{"molecule": "Cc1nnc(SCC(=O)N2c3ccccc3Sc3ccccc32)n1N", "Potency": "inconclusive [inhibitor, single point]"}
{"molecule": "COc1cccc(C2C(C(=O)c3cc4ccccc4o3)=C(O)C(=O)N2c2cc(C)on2)c1OC", "note": "(configuration not stated)", "Potency": "active: 3.16 µM"}
{"molecule": "CC(=O)N=Cc1c(C)c(C#N)c(=O)n(C)c1O", "Potency": "inactive"}
